Test results from the supplement of paper PMC12217912.
The other results are listed elsewhere or left out. Sequences were assembled here from the parent chain. Inactive controls read about 0.05.

B1: TEV protease; numbered along this chain (parent)
chain: MGESLFKGPRDYNPISSSICHLTNESDGHTTSLYGIGFGPFIITNKHLFRRNNGTLVVQSLHGVFKVKDTTTLQQHLVDGRDMIIIRMPKDFPPFPQKLKFREPQREERICLVTTNFQTKSMSSMVSDTSCTFPSGDGIFWKHWIQTKDGQCGSPLVSTRDGFIVGIHSASNFTNTNNYFTSVPKNFMELLTNQEAQQWVSGWRLNADSVLWGGHKVFMVKPEEPFQPVKEATQL

Variants of: B1
Assay: raw area under fraction-flipped curve 0-4 h after induction (AUC4h, not background-subtracted), DNA-recorder readout of cleavage of the substrate (dimensionless); higher = more cleavage of the substrate by the protease variant
Conditions: temperature: 34 °C; time window: 0-4 h after rhamnose induction
Experimental: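 In vivo DNA recorder in E. coli TOP10(DE3) ΔrhaA at 34 °C. Each TEVp single-site mutant (parent TEVp 0) is paired with a single-site variant of the 7-mer TEVs (canonical ENLYFQ|S). The substrate sits between flexible linkers in a Bxb1-sfGFP-TEVs-SsrA fusion, so cleavage stabilises Bxb1 and speeds flipping of a recombination array, read by NGS. The value is the raw area under the fraction-flipped curve over 0-4 h after rhamnose induction (AUC4h), with ≥20 reads per time point. It is not background-subtracted; inactive controls average about 0.047.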
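Also: Bxb1 expression induced with 0.2% (w/v) L-rhamnose at OD600 near 0.5, cultures sampled hourly, flipped fraction per protease–substrate barcode pair counted by paired-end Illumina sequencing.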

| Variant | area with substrate ENLYAQS | area with substrate ENLYCQS | area with substrate ENLYEQS | area with substrate ENLYGQS | area with substrate ENLYIQS | area with substrate ENLYLQS | area with substrate ENLYNQS | area with substrate ENLYPQS | area with substrate ENLYRQS | area with substrate ENLYTQS | area with substrate ENLYWQS | area with substrate ENLYYQS | area with substrate ENLYHQS | area with substrate ENLYKQS | area with substrate ENLYQQS | area with substrate ENLYSQS | area with substrate ENLYDQS | area with substrate ENLYMQS | area with substrate ENLYVQS |
| --- | --- | --- | --- | --- | --- | --- | --- | --- | --- | --- | --- | --- | --- | --- | --- | --- | --- | --- | --- |
| D208P | 0.0628 | 0.0737 | 0.0627 | 0.0726 | 0.0975 | 0.0662 | 0.061 | 0.0657 | 0.0685 | 0.0672 | 0.0599 | 0.0692 |  |  |  |  |  |  |  |
| L191S | 0.0658 |  |  |  |  |  | 0.0418 | 0.0616 |  |  |  |  | 0.0916 | 0.0203 | 0.0496 | 0.031 |  |  |  |
| G213V | 0.0604 | 0.0334 |  |  |  |  | 0.0585 | 0.0471 | 0.0563 |  | 0.0027 |  | 0.0676 | 0.0768 | 0.0452 |  | 0.0496 |  |  |
| V217K | 0.0632 | 0.0826 | 0.056 |  |  |  |  | 0.0617 |  | 0.0579 | 0.0434 | 0.0255 | 0.0613 |  | 0.0621 | 0.0438 | 0.068 | 0.0473 |  |
| V217T | 0.0791 |  | 0.0617 | 0.0657 | 0.0703 |  | 0.0597 | 0.0618 | 0.0825 |  | 0.0684 | 0.0539 | 0.0704 | 0.0541 |  | 0.0501 | 0.0443 | 0.0652 |  |
| V217Y | 0.0637 |  | 0.0642 | 0.0646 | 0.0293 | 0.0615 | 0.0637 |  | 0.067 | 0.0577 |  | 0.0561 | 0.0729 |  | 0.0601 | 0.065 | 0.0649 | 0.0403 |  |
| Q197M | 0.0723 |  | 0.0494 |  | 0.135 | 0.0744 | 0.0683 | 0.0708 |  |  | 0.106 |  | 0.114 |  |  | 0.0728 | 0.0666 |  | 0.134 |
| L205K | 0.0672 |  | 0.0599 |  |  | 0.0741 |  |  | 0.0649 |  | 0.0419 |  | 0.0545 |  | 0.0639 | 0.0345 | 0.0982 | 0.0664 |  |
| M188A | 0.0703 |  | 0.124 |  | 0.152 | 0.0977 | 0.0557 | 0.0573 | 0.0524 |  | 0.0881 |  | 0.0603 | 0.0497 | 0.0405 | 0.0839 | 0.0636 |  | 0.135 |
| L211R | 0.0754 |  | 0.0592 | 0.0561 |  |  | 0.0388 |  | 0.0479 |  | 0.0906 |  | 0.0567 |  |  | 0.0602 |  |  | 0.0988 |
| N193L | 0.111 | 0.0722 | 0.0655 | 0.0767 | 0.138 | 0.0522 | 0.0442 | 0.0737 | 0.0545 | 0.0453 |  |  | 0.0643 |  | 0.0442 |  | 0.0503 | 0.081 | 0.105 |
| K221G | 0.0892 | 0.0827 |  | 0.0637 | 0.07 |  | 0.0663 |  | 0.0635 | 0.0472 | 0.0703 | 0.0931 | 0.0527 | 0.0549 |  |  | 0.062 | 0.0685 |  |
| K221W | 0.046 |  |  | 0.0582 | 0.0722 |  | 0.0617 | 0.0725 |  | 0.0494 |  |  |  |  | 0.0329 | 0.0723 |  | 0.049 |  |
| V210H | 0.0648 |  | 0.0663 |  | 0.0771 |  | 0.065 |  | 0.0688 |  | 0.0605 | 0.0889 | 0.0833 | 0.058 |  | 0.0768 |  | 0.0891 | 0.124 |
| V210R | 0.0645 |  |  |  |  |  | 0.0583 |  |  |  | 0.0521 | 0.071 | 0.0673 | 0.0691 |  | 0.0697 |  | 0.08 | 0.106 |
| Q198M | 0.069 |  | 0.0743 | 0.0539 | 0.1 |  |  | 0.0629 | 0.0483 |  | 0.0809 | 0.0592 | 0.0516 | 0.0573 | 0.0922 | 0.0748 |  |  | 0.108 |
| Q198H | 0.0716 |  | 0.072 |  |  |  | 0.068 |  | 0.0598 |  |  | 0.0689 | 0.0674 |  |  | 0.0602 |  |  | 0.101 |
| E189F | 0.0763 |  | 0.0874 | 0.0669 | 0.129 |  | 0.0506 | 0.0679 | 0.0514 | 0.0439 | 0.0689 |  |  |  | 0.053 |  | 0.0717 |  | 0.099 |
| F218W | 0.0991 |  |  | 0.0758 | 0.0928 |  | 0.065 | 0.0638 |  |  | 0.0859 |  |  | 0.0188 |  |  | 0.0821 |  | 0.0955 |
| A207Q | 0.057 |  | 0.083 |  |  |  | 0.0734 |  |  |  |  | 0.0666 | 0.0586 | 0.0808 | 0.0637 |  | 0.0752 | 0.101 | 0.0865 |
| W212R | 0.0634 |  | 0.0592 |  |  | 0.0413 | 0.0533 | 0.061 |  | 0.0543 |  | 0.0482 | 0.0652 | 0.0648 | 0.0615 |  | 0.0645 | 0.0481 | 0.0574 |
| W212C | 0.0733 |  | 0.0835 | 0.058 |  |  | 0.0618 |  |  |  |  | 0.0921 | 0.0775 | 0.0467 | 0.0512 |  |  | 0.0614 |  |
| A196S | 0.0731 |  | 0.061 | 0.0713 |  | 0.0839 | 0.0661 | 0.0694 | 0.0568 | 0.0656 | 0.0834 | 0.088 | 0.0617 | 0.0534 | 0.0578 | 0.0586 | 0.0795 |  | 0.122 |
| N186D | 0.059 |  | 0.0578 | 0.0659 |  | 0.0839 | 0.0679 |  | 0.066 | 0.0077 | 0.0942 |  | 0.0918 | 0.0589 | 0.0723 |  | 0.0633 | 0.0768 | 0.0803 |
| N186G | 0.0907 |  |  |  |  |  |  | 0.0749 |  |  | 0.0959 |  |  |  |  |  | 0.0653 |  |  |
| E223S | 0.0873 |  | 0.0628 | 0.0622 |  |  | 0.0422 | 0.0707 | 0.0613 |  | 0.0678 | 0.0682 | 0.0527 | 0.0834 |  |  | 0.0747 | 0.0848 | 0.112 |
| E223V | 0.0687 |  |  | 0.0578 | 0.147 | 0.0637 | 0.0857 |  | 0.0604 |  |  |  |  |  |  | 0.0737 | 0.062 | 0.0477 |  |
| F180K | 0.0506 | 0.0555 | 0.053 | 0.0564 | 0.0515 |  |  |  | 0.0453 |  |  |  | 0.0492 | 0.057 | 0.0651 | 0.0428 | 0.0554 | 0.0264 | 0.0531 |
| F180M | 0.0598 |  | 0.0732 |  | 0.113 | 0.0836 |  |  | 0.0576 | 0.0987 | 0.0794 |  |  | 0.0425 |  | 0.078 | 0.059 | 0.108 | 0.101 |
| R204S | 0.0966 | 0.115 | 0.0689 | 0.0599 | 0.113 | 0.118 | 0.0715 | 0.0719 | 0.0691 | 0.0805 | 0.0847 | 0.0768 | 0.0607 | 0.0619 | 0.0757 | 0.091 | 0.0612 | 0.107 | 0.0746 |
